Source: the supplement of paper PMC10126150
Sequences with one replicate were seen in a single cluster, so their values are uncertain.

System: ATP
Experiment: switch fluorescence ratio, 500 uM ATP over buffer (Cy3 cluster intensity, sum of 5 cycles each) (fold (ratio)); higher = stronger signal-on switching upon ATP binding; sequences stand for … in TCGTCGGCAGCGTCAGATGTGTATAAGAGACAGTTTTTTTTTTTTTTTTTTTTTTTTT…TC
Conditions: aptamer strand: ATP DNA aptamer (quencher-CACCTGGGGGAGTATTGCGGAGGAAGG + anchor), 100 nM annealed; ATP concentration: 500 uM; one replicate
Method in brief: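 Clusters with intensities outside 100-1000 RFU were excluded. The remaining Cy3-labelled switching-strand clusters on a modified Illumina MiSeq flow-cell had been annealed to 100 nM quencher-labelled ATP aptamer and imaged in selection buffer, then after 15 min with 500 uM ATP at 22 °C, for five cycles separated by NaOH stripping and re-annealing. The fluorescence ratio, averaged per switch-domain sequence, is each cluster's summed target-cycle Cy3 intensity over its summed buffer-cycle Cy3 intensity.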
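Further: ATP exposure 15 min at 22 °C before imaging.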

Row | Sequence | switch fluorescence ratio
1 | CGGTTCAACG | 1.04
2 | TCGCGAAACG | 1.03
3 | GCGGCATCTG | 0.976
4 | AATTCGAACG | 0.962
5 | GTTTCTATTG | 0.979
6 | ATTTTAAAAG | 1
7 | TCTTGTAGTC | 0.994
8 | TTTCCTATTT | 1.03
9 | ATTAAGATCA | 1.01
10 | CTGTGCGCTT | 1.25
11 | TAAGGTGAC | 1.12
12 | ATACTCAAAA | 1.01
13 | TTCAAGGGAT | 0.967
14 | ATCGAGATGC | 1.12
15 | AATGGAAGA | 0.996
16 | AGCCGTAGAG | 0.946
17 | GCGCGGGTTC | 1
18 | GAGCTATAAA | 1
19 | CGCGATCGCA | 1.05
20 | CGGCCTGGCC | 1
21 | TGGGATATGA | 0.973
22 | TCTAGTAAAC | 1.06
23 | ATCGCTAGGG | 1.03

Row | Sequence | switch fluorescence ratio
24 | TTTTGTCGTA | 0.917
25 | CAGTAACGAA | 1.04
26 | CAGAAACATT | 0.967
27 | TGTGAACCCG | 0.983
28 | TACGAAGACC | 1.08
29 | GAGGGTACTT | 1.01
30 | ACGACTCGGC | 1.34
31 | AGGTGCGGAT | 1.02
32 | GAGTTGCATA | 1
33 | TGACGTGTG | 1.02
34 | ATCGGAAATT | 0.941
35 | AGTCAACTCT | 0.976
36 | CGTCTACTTG | 1
37 | TAGTGGCCAA | 0.988
38 | TACTATAAGT | 0.999
39 | AGTGACCGGT | 1.03
40 | AGCACGTATT | 1.13
41 | ACGTTCAGCC | 1.04
42 | TCGCAAGGGG | 1.09
43 | ACTGCATGCT | 1.07
44 | AGTTCACCAT | 1.03
45 | GGACTCGATG | 0.98
46 | CCCTGTCAGC | 1.18

Row | Sequence | switch fluorescence ratio
47 | ATGTAATCTT | 1.05
48 | CGACGGACGC | 1.45
49 | ATAGGAAGCA | 0.993
50 | TTGTATATT | 0.955
51 | GAGGATTTAT | 0.97
52 | CACGGGATTG | 1.14
53 | TTAGGCAGCA | 1.05
54 | GACCTGAGG | 1.04
55 | GCAGCGCGCT | 0.972
56 | ATGTCAGCTT | 0.971
57 | AAGCAGACTC | 2.09
58 | ATCGCGGATG | 0.989
59 | CACTTGGCGG | 0.996
60 | AGGAGCTAAT | 1.02
61 | CAGGAATAGA | 1.02
62 | TTTGTGTCCT | 1.43
63 | CGATCCCTCT | 1.02
64 | AAGAGCCTAT | 0.958
65 | TTCTTCGGTA | 1
66 | CAGGAAAGTC | 1.1
67 | TTCAAGGTGT | 1.4
68 | CCATTAGACT | 1.01
69 | CGAGTTGGG | 0.956

Row | Sequence | switch fluorescence ratio
70 | CGAAAGAGCC | 1.01
71 | CTTTTTATGC | 1.02
72 | GACCCTCATT | 0.974
73 | GTAAAAAGGC | 1.02
74 | AAGATCATTC | 0.997
75 | CCCCGTTAGC | 3.15
76 | CACAGGAGAT | 1.03
77 | TATTTTAAC | 1.05
78 | GGCTCAGACG | 0.931
79 | ACCTGTAAGG | 1.03
80 | ATTTTGTTAT | 0.965
81 | TATTGTTTTC | 0.968
82 | TGTAGCCATG | 0.997
83 | AATGCGTCTT | 0.991
84 | GATCATCTAC | 1.05
85 | GCATGGTGAT | 0.989
86 | ACATTGGGGG | 1.03
87 | GGTACGTAGT | 1
88 | CCCAACTTCC | 1.09
89 | GCAAGATTCG | 1.09
90 | CTATAAAGAT | 0.995
91 | GAGTAGGTCT | 0.985
92 | GTAATGAGCC | 0.957

Row | Sequence | switch fluorescence ratio
93 | GTGTTGAGGG | 0.991
94 | TGGTGCTTCC | 1.73
95 | ACAATAATGG | 1.04
96 | ATTGTGTCCG | 1.01
97 | TATACCGGCA | 1.04
98 | CTAGTGGCGG | 1.02
99 | GCCATCCTGA | 0.982
100 | ACAAGTCCGC | 1.86
101 | CGCCCAGTTC | 1.37
102 | ATCTCATGTT | 0.977
103 | GCAGGGAGTC | 1.01
104 | CTTCTACTAT | 1.01
105 | CTTCTATCTG | 1.02
106 | AGCCTGGTT | 1.01
107 | GGAAAGATCA | 0.978
108 | AATATGCCGT | 0.989
109 | TTGAGTCT | 0.964
110 | TCGTGAAAAG | 1
111 | TTTCGCGCAT | 1.22
112 | AATAACCCTG | 0.993
113 | CCATTCACTC | 1.05
114 | AAAAGTCG | 1.09
115 | TTTTGTCGG | 1.01

Row | Sequence | switch fluorescence ratio
116 | GGGTCTACCC | 0.998
117 | GGGCACGGGG | 1.03
118 | TCTTTTTAGC | 1.01
119 | GGGCCGGGCT | 1.19
120 | AATGATCCGG | 1.03
121 | TTCCAAAGTC | 1.01
122 | GGCTCGCGAT | 1.51
123 | TGATACATTA | 0.998
124 | AAGATGAGA | 0.988
125 | AGATCTGGAC | 1.04
126 | CATCCGGGCG | 1.35
127 | GATAGGATAA | 1.01
128 | GTTACTGCGC | 1.31
129 | GATGCTTCAG | 0.943
130 | GGAAGGTAGC | 0.959
131 | ACGGTACGGT | 1.16
132 | TCAGTTCTGA | 1.01
133 | TGATGCAGCG | 1.05
134 | ATTACACCTC | 1.06
135 | TCGATACCAT | 0.979
136 | CGTACCGCC | 1.15
137 | AGTTCTGACC | 1.06
138 | AGTGCCATCC | 1.1

Row | Sequence | switch fluorescence ratio
139 | AGGCCTATTC | 1.01
140 | AAACAGGTGT | 1.92
141 | AATAACCTGT | 1.09
142 | AAGGGTCCCA | 0.991
143 | CGGGTGCAGC | 0.99
144 | CTGGATACGG | 1.05
145 | AATACAGC | 1.03
146 | GTTCTCTGAG | 1.01
147 | TTATCATGAG | 1.02
148 | ATAAGACCTG | 1.05
149 | TACGTGGAAC | 1.08
150 | TTTTATATAG | 0.985
151 | TCGTCCGGCC | 1.27
152 | TACTGCTCAG | 1.01
153 | CCATGGACCC | 1.03
154 | CGAGCTTTTC | 1.11
155 | CTAAGCTCAA | 1
156 | AAATGACTCG | 1.03
157 | GATCGATAGT | 1.01
